Values joined by “and” are separate entries in the source; they are usually repeats but may differ in a detail not shown here. Identical values can stand only once. About 6,000 (1.7%) of roughly 360,000 compounds were called active. Inconclusive results, whose numbers are uncertain, are shown with a selection of clear calls. The call rests on the fitted dose curve; in most records, active means well fitted cell-killing curve with a large enough effect; inconclusive means small, poorly fitted or top-dose-only effect, or effect the other way; inactive means flat fitted curve, though single readings scatter. Potencies beside an inconclusive call are fits to weak or partial responses and may not hold up.
Experiment: qHTS for induction of synthetic lethality in tumor cells producing 2HG: qHTS for the HT-1080-NT fibrosarcoma cell line;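 further: NT is the 2HG producing partner of a matched IDH1 knockdown line; nearly all actives have a fitted effect of over 55% in size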;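 on activity, negative = less viability: 0% = DMSO-treated cells and -100% = media-only wells without cells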
Details: HT-1080-NT fibrosarcoma viability, CellTiter-Glo ATP luminescence, 48 h; activity, negative = less viability: at 46.1 µM (top of the series) unless noted
Method in brief: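 A 48-hour cytotoxicity screen used HT-1080-NT cells plated 2 hours before compound delivery. ATP-based CellTiter-Glo luminescence measured viability, normalized to DMSO and no-cell controls.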
Potency means the concentration at half of the fitted maximal effect; tags describe the fitted curve by direction and shape.

| SMILES | Potency | activity, negative = less viability |
| --- | --- | --- |
| Cc1ccc(-c2cc(C(=O)N3CCC(C)CC3)c3ccccc3n2)cc1 | inconclusive: 29.1 µM [cytotoxic, single point] |  |
| NC(=O)/C=C\C(=O)Nc1cccc(C(F)(F)F)c1 | inconclusive: 25.1 µM [cytotoxic, single point] |  |
| CCOC(=O)[C@]12CCC=C1N(Cc1ccco1)C(=O)[C@H](CC(=O)NCC13CC4CC(CC(C4)C1)C3)C2 | inconclusive: 20.6 µM [cytotoxic, single point] |  |
| O=C(CCc1ccc(S(=O)(=O)N2CCOCC2)cc1)Nc1ccc(F)c(F)c1F |  | inactive: 15.2% |
| NS(=O)(=O)c1ccc(CCNCc2ccccc2OCc2ccc(F)cc2)cc1 | inconclusive: 16.4 µM [cytotoxic, single point] |  |
| Cc1[nH]n(-c2ccccc2)c(=O)c1N=Nc1ccc2c(c1)OCO2 | inconclusive: 16.4 µM [rising, single point] |  |
| O=[N+]([O-])c1ccc(NC(=S)NCc2ccc(F)cc2)cc1 | inconclusive: 29.1 µM [cytotoxic, single point] |  |
| COc1cc(NC(=O)c2ccc(Cl)cc2)c(OC)cc1NC(=O)CN1CCCCC1 | inconclusive: 29.1 µM [cytotoxic, single point] |  |
| Cc1c(Cl)c([N+](=O)[O-])nn1CCCC(=O)O |  | inactive: 16.9% |
| CCc1ccc(/C=c2\s/c(=C\C(=O)C(C)(C)C)[nH]c2=O)cc1 | inconclusive: 29.1 µM [cytotoxic, single point] |  |
| Cc1cc(OCCOc2cccc3cccnc23)cc(C)c1Cl | inconclusive: 18.4 µM [cytotoxic, single point] |  |
| COc1cc(NC(=O)c2nccnc2N)cc(C(=O)Nc2cccc(C(F)(F)F)c2)c1 | inconclusive: 23.1 µM [cytotoxic, single point] and inconclusive: 29.1 µM [cytotoxic, single point] |  |
| Cc1cc(C)nc(N/N=C/C2=C(N3CCOCC3)C(=C/c3ccccc3)/CC2)n1 |  | inactive: -1.88% |
| COc1cccc(NC(=O)CCC2CCN(Cc3nccs3)CC2)c1 |  | inactive: -8.15% |
| CN1CCN(C2=Cc3ccc(Cl)cc3Sc3ccc(F)cc32)CC1 | inconclusive: 20.6 µM [cytotoxic, single point] |  |
| CCCCC(=O)N/N=C/c1ccc(N2CCOCC2)c([N+](=O)[O-])c1 |  | inactive: 1.8% |
| CN(C(=O)CSc1nnc(-c2cccc(F)c2)n1N)C1CCS(=O)(=O)C1 (configuration not stated) |  | inactive: 25.8% |
| CC(Oc1ccccc1Cl)C(=O)Nc1ccc(S(=O)(=O)N2CCN(C)CC2)cc1 (configuration not stated) | inconclusive: 29.1 µM [cytotoxic, single point] |  |
| CN=c1scc(-c2ccc(OC)cc2)n1/N=C(\C)c1cccnc1 | inconclusive: 29.1 µM [cytotoxic, single point] |  |
| C=C1SC(Nc2c(C)cccc2C)=NC12CCCCC2 |  | inactive: -17.4% |
| N/C(=N/OC(=O)c1ccccc1Cl)c1ncc([N+](=O)[O-])s1 | active: 29.1 µM |  |
| CCOc1ccc(CCN2C(=S)N([C@@H](CC(C)C)CN3CCC[C@@H]3CN3C(=S)NC[C@@H]3Cc3ccc(O)cc3)C[C@@H]2CC(C)C)cc1 | inconclusive: 23.1 µM [cytotoxic, single point] |  |
| Cn1cnnc1SCC(=O)NNC(=O)c1ccc(Cl)cc1 |  | inactive: -3.4% |
| CC(/C=N/NC(=O)c1cnccn1)=C\c1ccco1 |  | inactive: 9.02% |

| SMILES | Potency | activity, negative = less viability |
| --- | --- | --- |
| COc1ccc(CCN2C(=S)N(c3ccc(Cl)cc3)C(=O)C2CC(N)=O)cc1OC (configuration not stated) |  | inactive: -26.7% |
| O=C(NCC[C@@H]1CC[C@@H](NS(=O)(=O)Cc2ccccc2)[C@@H](CO)O1)C1CC1 |  | inactive: 21.8% |
| CCC(=O)Nc1cccc(C(=O)/C=C/c2cc(Br)ccc2OC)c1 | active: 8.2 µM |  |
| CCCCOC(=O)C(C#N)c1nc2ccccc2nc1N1CCN(Cc2ccc3c(c2)OCO3)CC1 (configuration not stated) |  | inactive: -3.35% |
| CCC(=O)Nc1nc(C)c(-c2csc(Nc3ccccn3)n2)s1 | inconclusive: 16.4 µM [cytotoxic, single point] |  |
| COc1ccc(-n2c(=S)[nH]c3cc(C(=O)Nc4ccc(OC)c(OC)c4)ccc3c2=O)cc1 | inconclusive: 3.66 µM [cytotoxic, full curve] |  |
| O=C(O)c1ccc(N/N=C/c2ccc(-c3ccc(Cl)cc3Cl)o2)cc1 | inconclusive: 16.4 µM [cytotoxic, single point] |  |
| CC(Sc1nnc(-c2cccnc2)o1)C(=O)NC1CCCCC1 (configuration not stated) |  | inactive: 17.6% |
| c1ccc2[nH]c(-c3ccc4c(c3)OCO4)nc2c1 | active: 25.9 µM |  |
| CN1CCN(C2Cc3ccccc3Sc3cc(C(F)(F)F)ccc32)CC1 (configuration not stated) | active: 16.4 µM |  |
| O=C(COC(=O)c1cccc2c1C(=O)c1ccccc1C2=O)NC1CCCCC1 | inconclusive: 20.6 µM [cytotoxic, single point] |  |
| Cc1cccc(NCC(=O)N/N=C/c2cccc(Br)c2)c1 |  | inactive: 12.9% |
| COc1cc(-c2noc(C)c2C#Cc2nccn2C)cc(OC)c1OC | inconclusive: 16.4 µM [cytotoxic, partial curve] |  |
| CCOC(=O)C1=C(C)C(c2cccc(Oc3ccccc3)c2)NC(=S)N1 (configuration not stated) | inconclusive: 18.4 µM [cytotoxic, single point] |  |
| O=S(=O)(c1ccccc1)c1nnn2c1nc(NC1CCN(Cc3ccccc3)CC1)c1ccccc12 |  | inactive: -10.5% |
| C[C@H](NC(=O)Cn1cncn1)c1ccccc1 | inconclusive: 13 µM [rising, partial curve, poor fit] |  |
| O=C(NNC(=S)Nc1ccc(Cl)cc1Cl)c1ccncc1 |  | inactive: 2.89% |
| CN(C)[C@@H](CO)c1nnc([C@H](CC(=O)O)NC(=O)C2CCNCC2)o1 |  | inactive: 0.134% |
| CC1(C(=O)NCC2CC2)Cc2c(-c3cccc(C(F)(F)F)c3)ccnc2O1 (configuration not stated) | inconclusive: 25.9 µM [cytotoxic, single point] |  |
| O=C(CCn1c(=S)[nH]c2ccccc2c1=O)NCCSCc1ccccc1 | inconclusive: 29.1 µM [cytotoxic, single point] |  |
| Cc1ccc(CNC(=O)Cc2ccc(Br)cc2)cc1 | active: 23.1 µM |  |
| CCCc1nc2n[nH]c(N)c2c2c1CCCC2 |  | inactive: -15.9% |
| N=c1c2c(-c3ccccc3)c(-c3ccccc3)oc2ncn1CCN1CCOCC1 | inconclusive: 23.1 µM [cytotoxic, single point] |  |
| Cc1ccccc1C=Nc1ccccc1C(N)=O | active: 16.4 µM |  |

| SMILES | Potency | activity, negative = less viability |
| --- | --- | --- |
| CC(=O)c1c(C)[nH]c(C(=O)CSc2nnc(-c3ccccc3)n2Cc2ccc3c(c2)OCO3)c1C | inconclusive: 29.1 µM [cytotoxic, single point] |  |
| CCOC(=O)c1c(NC(=O)c2ccco2)n(C2CCCCC2)c2nc3ccccc3nc12 | inconclusive: 35.5 µM [cytotoxic, single point] |  |
| COc1cc(-c2cc(-c3ccccc3)nc(SCC(=O)Nc3nccs3)c2C#N)cc(OC)c1OC | inconclusive: 6.51 µM [cytotoxic, partial curve] |  |
| Cc1c(C(=O)C(=O)N2c3ccccc3CC2C)c2ccccc2n1C (configuration not stated) | inconclusive: 16.4 µM [cytotoxic, single point] |  |
| CC1CCC2(CC1)NC(=S)N(c1ccccc1)N2 (configuration not stated) | inconclusive: 8.2 µM [cytotoxic, partial curve] |  |
| Cc1ccc(-c2cc(C(=O)Nc3ccc(S(=O)(=O)Nc4onc(C)c4C)cc3)c3ccccc3n2)cc1 |  | inconclusive: -33.5% [cytotoxic] |
| Cc1ccc(C)c(C(C)NC(=S)NCc2ccc(F)cc2)c1 (configuration not stated) | inconclusive: 20.6 µM [cytotoxic, single point] |  |
| N#CC(C#N)=NNc1ccc2cn[nH]c2c1 | active: 20.6 µM |  |
| Cc1cc(NC(=O)c2sccc2C)n(-c2nc3ccccc3[nH]2)n1 | inconclusive: 10.3 µM [cytotoxic, partial curve] |  |
| CC(=O)Nc1cc(N=Cc2ccc(O)cc2O)c(Cl)cc1Cl | inconclusive: 18.4 µM [cytotoxic, single point] |  |
| CCOc1cccc(/C=C/c2ccc3cccc(O)c3n2)c1OC | inconclusive: 16.4 µM [cytotoxic, partial curve] |  |
| O=[N+]([O-])c1ccc(Oc2cccc(F)c2)c2ccncc12 | inconclusive: 16.4 µM [cytotoxic, partial curve] |  |
| COc1cc(C2=NOC(C(=O)NC3CCCCC3)C2)cc(OC)c1OC (configuration not stated) |  | inactive: -3.93% |
| NC(Cc1ccc(C(F)(F)F)cc1)c1csc(Nc2cc(NCc3ccco3)ncn2)n1 (configuration not stated) | active: 23.1 µM |  |
| Cc1ccc(-c2nc(CN3CCN(C(=O)C4CCCO4)CC3)cs2)cc1 (configuration not stated) |  | inactive: -15.3% |
| CS(=O)(=O)c1ccc(C(=O)OCc2nnc(-c3ccccc3)o2)cc1[N+](=O)[O-] | active: 7.31 µM |  |
| C/C(=N\NC(=O)c1cccnc1)c1ccccc1 |  | inactive: 8.6% |
| Oc1cccc(C2c3[nH]c4ccccc4c3CCN2Cc2cnn(-c3ccccc3)c2)c1 (configuration not stated) | inconclusive: 18.4 µM [cytotoxic, partial curve] |  |
| COc1ccccc1CNC(=O)Nc1nc(C(N)CCc2ccccc2)cs1 (configuration not stated) | inconclusive: 29.1 µM [cytotoxic, single point] |  |
| FC(F)(F)c1ccc2c(c1)C1C=CCC1C(c1ccncc1)N2 (configuration not stated) |  | inconclusive: -37.4% [cytotoxic] |
| CCN(CC)CCOCCOc1ccc(Cl)c2ccccc12 | inconclusive: 25.9 µM [cytotoxic, single point] |  |
| Cc1ccc(NC(=O)c2nc(S(=O)(=O)Cc3ccccc3)ncc2Cl)cc1 | active: 18.4 µM |  |
| O=c1c2ccccc2nc(SCc2nnc(-c3ccccc3Br)o2)n1Cc1ccco1 | inconclusive: 35.5 µM [cytotoxic, single point] |  |
| O=C1c2cccc3c([N+](=O)[O-])ccc(c23)C(=O)N1c1nccs1 | active: 8.91 µM |  |

From PubChem BioAssay AID686970 (National Center for Advancing Translational Sciences (NCATS), 2013)
